Assay results reported in the supplement of paper PMC3334620.
Whole data set: some 33,000 sequences, median “E-score (-0.5 to 0.5)” near -0.016, cut for the highest 2% near 0.32. The list shows a part of the results.

These sequences were tested against T1, Stp1 (UniProt B3LFK1) (assay: PBM E-score (8-mer binding enrichment) (E-score (-0.5 to 0.5)); higher = stronger / more preferred TF binding; most listed sequences are background and not binding sites). Settings: protein concentration: 200 nM; construct: GST-full length.
T1 sequence: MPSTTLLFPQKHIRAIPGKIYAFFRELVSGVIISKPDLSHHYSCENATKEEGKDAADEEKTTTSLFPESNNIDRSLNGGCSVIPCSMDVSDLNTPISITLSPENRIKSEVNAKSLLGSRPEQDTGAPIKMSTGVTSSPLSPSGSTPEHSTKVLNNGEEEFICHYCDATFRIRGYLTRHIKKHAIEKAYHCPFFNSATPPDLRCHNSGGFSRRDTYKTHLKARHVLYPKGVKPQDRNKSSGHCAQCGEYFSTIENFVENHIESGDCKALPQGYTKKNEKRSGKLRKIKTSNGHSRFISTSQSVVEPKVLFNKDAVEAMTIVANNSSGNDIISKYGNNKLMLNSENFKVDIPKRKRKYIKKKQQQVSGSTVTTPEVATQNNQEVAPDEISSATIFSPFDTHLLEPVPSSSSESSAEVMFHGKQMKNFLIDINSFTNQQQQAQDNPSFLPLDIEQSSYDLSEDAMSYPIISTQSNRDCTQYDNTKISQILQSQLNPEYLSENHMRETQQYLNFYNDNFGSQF
Experimental: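 Universal 'all 10-mer' protein binding microarrays (Agilent AMADID 015681) probed with GST-tagged S. cerevisiae TFs (full-length or DBD) made by in vitro transcription/translation (PURExpress), about 100-200 nM. Bound TF was detected with fluorescent anti-GST. Each ungapped 8-mer (which stands for itself and its reverse complement) is scored by the PBM enrichment score (E-score), a modified Wilcoxon-Mann-Whitney statistic from -0.5 to +0.5, computed with the Universal PBM Analysis Suite. Scale: above 0.35 generally sequence-specific binding.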

Sequence	PBM E-score
CTCTACAG	-0.0812
CAGTTCTA	-0.128
GGATGTAC	-0.168
AAGATTCT	0.0266
GTTCACGA	-0.0527
AAACGCGG	0.295
ATGGCTAA	-0.00986
ATAGCTAA	-0.163
CTCAAAAC	0.15
CCCTCGTC	-0.144
CGTCCTGA	-0.0412
CAAACCTC	-0.344
CGGGATGA	-0.149
CAGTTTAG	-0.172
GTCTTACA	-0.154
ACAGCTTC	-0.2
GTGGCTGA	-0.00478
GTAGGGAA	-0.018
AAAACCTG	-0.16
GATTCACA	0.0471
GTCTCAAA	-0.0727
CAAAACCA	0.152
GAATCTTA	0.158
ATAAGTGC	-0.0812
GATGAGTA	-0.00716

Sequence	PBM E-score
CAGCGTCC	-0.148
CAATCTGC	-0.0198
ATTCCGGC	0.0336
CAAACACC	0.0562
CTATTATC	0.108
AACGCTCA	-0.229
CCACTTAG	0.0127
CCTGCCCC	-0.275
GACTCAAA	-0.0919
CTCTAAGA	0.0388
ACAACATA	0.0457
AATCAGCA	0.153
GACGACCA	-0.119
CCTTCTGC	-0.215
AATTTGTA	0.159
TAGCTCGA	-0.0947
ATTGTTAG	0.0841
GTATTCTA	0.152
CTGATGGC	-0.076
ACCAACGC	-0.0422
AATTCGCG	0.102
AGGATAAA	0.0297
AGGAAACA	0.0835
CAAATTCG	0.0115
GCAGAACC	-0.0732

Sequence	PBM E-score
TCAAAAGA	0.155
CCGGCCTC	-0.2
CATCTCGA	-0.0909
GCCGGTAA	0.0143
ATAGTTCC	-0.0258
AACTAACT	-0.0452
ACCTGCGA	-0.259
GGCATCAA	0.287
CAAATAGG	0.0882
CTGCTCAC	-0.133
CTGTCAAC	0.0325
GAACTGTA	0.26
ACACGACC	0.0261
GTAGTGCA	0.141
AGACTTGG	-0.281
CCATCACG	0.0153
AACCTGCT	-0.161
CCGCGCTC	0.235
CATTTACG	0.0853
ATCGTTAG	0.076
AATCGAGA	-0.105
ATGCGAAC	-0.103
GGTCTTTA	0.0371
ATAATCTC	0.122
CCTGACTA	0.0312

Sequence	PBM E-score
TGAAGCAA	-0.137
GTTTGTCA	0.0254
ATGCCTAC	-0.053
AGAATTAG	-0.198
AGGGGCAG	-0.228
ACAAGACA	0.201
ACCGATAC	0.0657
GCCGTAGA	0.427
GGTAAGTA	0.102
AAAAGCAA	0.135
ATCCCGAC	-0.0881
ATTGGTAG	-0.00738
ATGCGTTA	0.0413
CGTAGCGC	-0.102
GAATCGCA	-0.16
GCTTCTTA	-0.065
ATACGGAG	0.201
ATTTCGAG	0.115
CGTAGTAG	0.0956
AATAGCAA	0.0203
GACCTCGC	-0.13
CAGTTTAC	0.0432
AGTTTAGC	-0.0815
AATGCACG	0.0521
CGTTTAAA	0.196

Sequence	PBM E-score
GAAGACAC	0.122
CCGATGGA	-0.153
AGCCACAA	-0.0478
AAGTCACG	-0.0977
ATAATCCC	-0.153
ATAACCAA	0.0771
CAAAATCC	0.195
CGAAGTTC	0.0377
AACTTGCC	0.0528
AACCCGTG	0.034
CGGTCGGC	-0.02
AGAGTTAA	0.05
AACGAGGA	-0.0645
GAACCCGC	-0.0711
GGAATTCC	-0.236
AAAAATCT	0.0736
TCTAAGCA	0.104
AATAGTGG	-0.11
GGATGTGA	-0.084
GCAACCGA	-0.0402
TCTACGCA	0.157
AGAGTCGG	-0.108
CACCAATG	-0.165
AGAAAAGA	-0.0559
GAACTCGA	-0.0365

Sequence	PBM E-score
CACGCCTC	0.205
CCGAGGCA	0.179
ATTGCTCG	-0.121
CTTTCAAA	0.137
CCGTCTAC	0.206
ACCTGACT	-0.0202
GCCGAATA	0.265
GCACTTAA	0.235
AAACGGAT	0.259
CTCGACCA	-0.0695
AACTATAG	-0.193
GGTGCACC	0.0513
CAGAATCA	0.0949
CATCATCC	-0.0318
AATGTACA	0.0493
CCTAGTAA	-0.159
CCATGCGC	-0.0475
AATTGGAC	0.0534
AGGACCCA	-0.355
ACGCAGTC	-0.287
GGCTACGA	0.0642
GCAGTCCC	-0.352
GGGGTGAA	-0.282
CATCGGTA	-0.0281
CTTAATCC	-0.109

Sequence	PBM E-score
CTTTCTGC	0.124
GTTCTTAA	0.0537
CCGTGAAG	-0.0571
GTCATAGA	-0.00134
ACGTACAT	0.0249
ATTGGTGG	-0.0784
GGTGTGCA	-0.234
TACTCCTA	0.0822
GTGAACCA	0.0909
CTCACCTA	0.0144
CACGTTTA	0.103
CTCCAAAC	0.12
CTAGTTCC	-0.048
CCGGTCCA	-0.212
AGCTTAGG	-0.0471
CAGGTCCG	-0.205
ACCTAGAC	-0.18
CGGGGGAA	-0.285
AGTAGGAA	-0.00334
AGTAGGTC	-0.17
CCAGGTGC	-0.187
AGGTCCCA	-0.313
